Experimental data taken from ChEMBL document CHEMBL5308541, “MAIP: An Open-Source Tool to Enrich High-Throughput Screening Output and Identify Novel, Druglike Molecules with Antimalarial Activity” (ACS Med Chem Lett, 2023).
Out of some 150,000 compounds screened, about 540 (0.36%) showed an effect of 50% or more. The list shows a part of the results.

Test system: Plasmodium falciparum
Experiment: Primary screen in NF54 nanoGlo assay, in single point, at 2uM, 72h; a lower Z score goes with more inhibition
Type: functional, Erythrocyte
Conditions: timepoint 72 hour

Compound | % Inhibition [%] | Z score
Cc1ccc(NC(=O)C(=O)N(C)CCC(C)(C)O)c(C)c1 | -3 | 0.55
Cc1nc(O)c(Cl)c(-c2ccc([C@H](C)N(C)C)cc2)n1 | 9 | -1.86
c1cc(N2CCC[C@H](NCc3cnc4cnccn34)C2)ncn1 | -2 | 0.4
Cc1n[nH]c(C)c1S(=O)(=O)N[C@@H](CC(=O)O)Cc1ccccc1 | -1 | 0.18
N#CCNC1CCCCC1C(F)(F)F (stereo unspecified) | 0 | -0.01
CCC(=O)N1CC[C@H](Nc2cncc(-n3ccnc3C)n2)C1 | -1 | 0.2
CCn1cnc2c(Nc3cc(F)cc(N(C)C)c3)ncnc21 | 9 | -1.71
CC(=O)N(C)c1ccc(NC(=O)CN2CC(N3CCCC[C@@H]3C)C2)cc1 | -8 | 1.63
FC(F)(F)c1cnc(Nc2ccc3[nH]ncc3c2)c(Cl)c1 | 4 | -0.69
O=C(NCCc1c(C(F)(F)F)[nH]c2ccccc12)[C@@H]1C[C@H]1C1CCNCC1 | 0 | 0
c1coc(CN2CCC(NCCCn3ccc4ccccc43)CC2)c1 | -8 | 1.28
CN(C)C(C)(C)CNc1ccc(C(=O)C2CC2)cc1S(N)(=O)=O | -9 | 1.86
CN(C)c1nc(NCC2CCN(CC3CC3)CC2)ncc1F | -9 | 1.99
Cn1cc(-c2cncc(CNC(=O)c3ccc4cc[nH]c4c3)c2)cn1 | -11 | 2.25
COc1cc(OC)c2cc(CN[C@H](CO)Cc3ccc(O)cc3)cnc2c1 | -10 | 1.74
COC(=O)c1cccc(NC2CCN(C(=O)Cc3ccc4cn[nH]c4c3)CC2)c1 | -12 | 2
CS(=O)(=O)C1CCC(CNc2cc(-n3ccnc3)ncn2)CC1 (stereo unspecified) | 7 | -1.58
CC(C)Nc1nc(NCCO)nc(N2CCC(N3CCO[C@@H](C)C3)CC2)n1 | -6 | 0.93
Nc1nc2c(c(NCc3ccccc3-n3cncn3)n1)CCCC2 | -2 | 0.28
COc1cc2nc(N3CCC[C@H](c4nc(N(C)C)no4)C3)nc(N)c2cc1OC | -3 | 0.69
CS(=O)(=O)NC1C(NC(=O)Cn2ccc(=O)[nH]c2=O)C2CCOC21 (stereo unspecified) | -10 | 1.71
O=C(NC1CCCCC1O)c1ccc(-c2cccc(CN3CCCC3)c2)cc1 (stereo unspecified) | -4 | 0.95
O=C(Nc1ccccc1)c1ccc(N2CC[C@H](NCc3cccc(O)c3)C2)nc1 | -1 | 0.12
Cn1ncc2c(N)nc(N3CC4CN(CCCn5cccn5)CC4(CO)C3)nc21 (stereo unspecified) | 1 | -0.25
C[C@@H](C(=O)N1CCC(Oc2cnccn2)CC1)N1CCN(C)CC1 | -4 | 0.59
c1cnn(CCCN2CCC(c3nnc[nH]3)CC2)c1 | 1 | -0.13
Cc1cc(C(=O)N2CCNC(=O)[C@@H]2C(C)C)c2cc(Cl)ccc2n1 | -11 | 2.13

Compound | % Inhibition [%] | Z score
c1ccc(N[C@H]2CCN(c3ccnc(N4CCCCC4)n3)C2)cc1 | 9 | -1.89
CN1C[C@@H](n2cnc(-c3ccccc3)c2-c2nc3ccccc3[nH]2)CCC1=O | -8 | 1.46
CCN(CC)CCC[C@H](C)NC(=O)c1ccc(-c2cc(-c3ccc(N4CCCCC4)cc3)[nH]n2)cc1 | 0 | 0.05
Cc1cccc(-c2nc(CN3CCC(C(=O)N4CCC(Cc5nc(C6CCOCC6)no5)CC4)CC3)c(C)o2)c1 | -7 | 1.47
CN1CCN([C@H]2CCN(C(=O)c3ccc(-c4cncnc4)cc3)C2)CC1 | 2 | -0.42
Cn1cc(CC(=O)N2CC(Nc3ncccn3)C2)c2ccccc21 | 6 | -1.09
CN1CCN(C2COCC2Nc2nccc3ccccc23)CC1 (stereo unspecified) | -4 | 0.78
Cc1cc(F)ccc1N1CCC(NCCCNc2cccnc2)CC1 | 31 | -6.15
Cc1ccc2[nH]cc(CN(C)Cc3cn(C)nc3-c3ccccc3F)c2c1 | 1 | -0.22
O=C1OCCCN1CCNc1nccc(N2CCNC3CS(=O)(=O)CC32)n1 (stereo unspecified) | -3 | 0.57
CN(C)C1CCN(CCNC(=O)c2cccc(-c3cnco3)c2)CC1 | -5 | 0.78
Cc1nccn1CC(=O)N1CCC2(CC1)CN(CC1=CCCCC1)CCO2 | -13 | 2.02
Cc1cc(O)c(Cl)cc1-c1ncnc2[nH]ccc12 | 1 | -0.29
c1ccc(-c2ccnc(C3CCN(CC45CNCC4C5)CC3)n2)cc1 (stereo unspecified) | 89 | -13.57
O=C(C1CCCN1C(=O)C1CCCC1)N1CCC(Nc2ccc3nccn3n2)C1 (stereo unspecified) | -8 | 1.24
CC1(Cc2noc([C@H]3CC(=O)N(CCN4CCOCC4)C3)n2)CCCC1 | -8 | 1.26
CCc1c[nH]c2ncnc(Nc3ccc(OC)c(S(C)(=O)=O)c3)c12 | 1 | -0.1
CC(CN1CCCCCC1)N1C[C@H]2C[C@H](O)[C@H](O)C[C@H]2C1 (stereo partly specified) | -1 | 0.11
CCn1nc(CN2CCC[C@H](COC)CC2)c2ccccc21 | 5 | -0.79
CN(C)C[C@H](O)Cn1cc(NC(=O)c2cc3ccc(Cl)cc3[nH]2)cn1 | 10 | -1.71
O=C(c1ccc(-c2cn[nH]c2)cc1)N1CC(NC2CCOCC2)C1 | -6 | 1.21
Cc1cccc2[nH]c(CNc3ncnc4c3c(C)nn4C)nc12 | -2 | 0.41
O=C(NCCc1ccc2[nH]ccc2c1)N1CCC(N2CCc3cc(F)ccc32)CC1 | -2 | 0.4
Cn1ncc2cc(-c3cccc(C(=O)N4CCC[C@H](C(N)=O)C4)c3)ccc21 | -17 | 3.65
c1ccc2[nH]c(CNCc3cc(CN4CCCCC4)cs3)cc2c1 | 2 | -0.29
CCCCOCCOCCNc1ncnc2oc(-c3ccccc3)cc12 | -3 | 0.51
